{
  "source": "the BET-seq Pho4 binding data (Le et al. 2018)",
  "note": "This is one part of the list. Values were computed here from the reads of four pooled replicates and scatter widely.",
  "data": [
    {"target": "T1, Pho4 (S. cerevisiae) (UniProt P07270)", "T1 sequence": "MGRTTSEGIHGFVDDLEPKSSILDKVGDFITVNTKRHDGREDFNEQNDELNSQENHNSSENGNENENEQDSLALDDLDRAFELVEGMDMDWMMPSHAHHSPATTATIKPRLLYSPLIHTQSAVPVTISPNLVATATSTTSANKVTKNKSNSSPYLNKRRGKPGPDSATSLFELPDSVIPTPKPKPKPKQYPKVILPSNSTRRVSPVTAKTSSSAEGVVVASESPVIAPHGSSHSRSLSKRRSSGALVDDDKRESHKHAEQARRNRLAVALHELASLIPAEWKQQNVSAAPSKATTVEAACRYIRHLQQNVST", "assay": "relative binding free energy (BET-seq); higher = weaker binding", "details": "reference: library average", "units": {"relative binding free energy": "kcal/mol"}, "values": [
      {"sequence": "CGGTACACGTGGGATA", "relative binding free energy": 0.02},
      {"sequence": "GATATCACGTGAGTGA", "relative binding free energy": 0.32},
      {"sequence": "GGGGTCACGTGACAGG", "relative binding free energy": 0.38},
      {"sequence": "CCGTTCACGTGGTGGC", "relative binding free energy": 0.38},
      {"sequence": "TCCAACACGTGTGTGT", "relative binding free energy": 0.23},
      {"sequence": "GGTAACACGTGGGGTC", "relative binding free energy": -0.12},
      {"sequence": "AGGGCCACGTGAGTGT", "relative binding free energy": -0.02},
      {"sequence": "ATTGTCACGTGATCGA", "relative binding free energy": 0.2},
      {"sequence": "TATTTCACGTGTATAA", "relative binding free energy": 0.21},
      {"sequence": "CGGAGCACGTGTGGTT", "relative binding free energy": 0.05},
      {"sequence": "AGAGGCACGTGCAGAT", "relative binding free energy": -0.06},
      {"sequence": "ATTATCACGTGTGAGG", "relative binding free energy": 0.27},
      {"sequence": "CTTAGCACGTGGGATG", "relative binding free energy": -0.2},
      {"sequence": "TATATCACGTGGTTGT", "relative binding free energy": 0.14},
      {"sequence": "TTGAGCACGTGGTGAA", "relative binding free energy": -0.03},
      {"sequence": "TTGGACACGTGAGTCG", "relative binding free energy": 0.17},
      {"sequence": "CGTGCCACGTGGGTGA", "relative binding free energy": -0.19},
      {"sequence": "ATGTTCACGTGCATTG", "relative binding free energy": 0.12},
      {"sequence": "TGGCACACGTGCGAGG", "relative binding free energy": -0.01},
      {"sequence": "ATTCGCACGTGGGATG", "relative binding free energy": -0.01},
      {"sequence": "TAACTCACGTGTGGGC", "relative binding free energy": 0.34},
      {"sequence": "GAGATCACGTGTCGTT", "relative binding free energy": 0.24},
      {"sequence": "TGTTTCACGTGGGGGT", "relative binding free energy": 0.17},
      {"sequence": "AGGTGCACGTGTCAGA", "relative binding free energy": 0.12},
      {"sequence": "GGGTGCACGTGTGCTT", "relative binding free energy": -0.04},
      {"sequence": "TGCTGCACGTGAATGT", "relative binding free energy": 0.1},
      {"sequence": "ATTATCACGTGTGCTA", "relative binding free energy": 0.19},
      {"sequence": "ATTAGCACGTGTGTGT", "relative binding free energy": -0.01},
      {"sequence": "CATGGCACGTGAGTAG", "relative binding free energy": 0.02},
      {"sequence": "ATTTGCACGTGAAATT", "relative binding free energy": 0.33},
      {"sequence": "TTCAGCACGTGGTATG", "relative binding free energy": -0.15},
      {"sequence": "GTGTTCACGTGCGTAG", "relative binding free energy": 0.31},
      {"sequence": "TAAAGCACGTGAGTTT", "relative binding free energy": 0.3},
      {"sequence": "AGTTTCACGTGGGGCC", "relative binding free energy": 0.39},
      {"sequence": "TTAGTCACGTGACTGT", "relative binding free energy": 0.2},
      {"sequence": "TGATGCACGTGTGTGC", "relative binding free energy": -0.1},
      {"sequence": "TGTTCCACGTGTAATG", "relative binding free energy": 0.13},
      {"sequence": "GTGTACACGTGTGTGA", "relative binding free energy": 0.04},
      {"sequence": "GAAATCACGTGTAGGT", "relative binding free energy": 0.18},
      {"sequence": "TCAGACACGTGGGTAG", "relative binding free energy": -0.07},
      {"sequence": "TTCGACACGTGGGAGT", "relative binding free energy": -0.04},
      {"sequence": "GGATACACGTGATTAT", "relative binding free energy": 0.31},
      {"sequence": "TTCTTCACGTGAAGAT", "relative binding free energy": 0.46},
      {"sequence": "GTGGGCACGTGTAAGC", "relative binding free energy": 0.09},
      {"sequence": "TTGAGCACGTGGTATG", "relative binding free energy": -0.1},
      {"sequence": "GGGGCCACGTGTTAGT", "relative binding free energy": -0.05},
      {"sequence": "AAGGGCACGTGAATAG", "relative binding free energy": 0.19},
      {"sequence": "ATGTGCACGTGTGATG", "relative binding free energy": 0.05},
      {"sequence": "TATCTCACGTGGCGTG", "relative binding free energy": 0.09},
      {"sequence": "TTTTCCACGTGTCATT", "relative binding free energy": 0.09},
      {"sequence": "TCTTGCACGTGGATGG", "relative binding free energy": 0.09},
      {"sequence": "CGATGCACGTGGTATG", "relative binding free energy": -0.14},
      {"sequence": "TCTGGCACGTGGGAGA", "relative binding free energy": -0.21},
      {"sequence": "GCGGGCACGTGTGAGT", "relative binding free energy": 0.09},
      {"sequence": "CTATTCACGTGGGTAA", "relative binding free energy": 0.11},
      {"sequence": "TGTTTCACGTGGTAGG", "relative binding free energy": 0.24},
      {"sequence": "TAGTTCACGTGTGAAG", "relative binding free energy": 0.29},
      {"sequence": "ATAGTCACGTGCTTTG", "relative binding free energy": 0.16},
      {"sequence": "CGATCCACGTGGGGTG", "relative binding free energy": -0.13},
      {"sequence": "GTACGCACGTGGTGAT", "relative binding free energy": -0.22},
      {"sequence": "TCATTCACGTGGGTGT", "relative binding free energy": 0.13},
      {"sequence": "TGTGACACGTGCTGGC", "relative binding free energy": -0.08},
      {"sequence": "AGGTGCACGTGCAGTA", "relative binding free energy": -0.18},
      {"sequence": "GTATACACGTGGCGAT", "relative binding free energy": 0.27},
      {"sequence": "GAGTGCACGTGTTGGC", "relative binding free energy": 0.18},
      {"sequence": "TCCAGCACGTGGGGTA", "relative binding free energy": -0.17},
      {"sequence": "AGGGTCACGTGGTCTG", "relative binding free energy": 0.09},
      {"sequence": "TGTCTCACGTGATGAG", "relative binding free energy": 0.45},
      {"sequence": "GAGGACACGTGGTGGA", "relative binding free energy": 0.05},
      {"sequence": "ATGGGCACGTGGACAG", "relative binding free energy": -0.27},
      {"sequence": "AGAAACACGTGTATGG", "relative binding free energy": -0.02},
      {"sequence": "TCTATCACGTGAGGGG", "relative binding free energy": 0.12},
      {"sequence": "TTTGTCACGTGGGCAT", "relative binding free energy": 0.04}
    ]}
  ]
}
